Publication PMC4336329 (PLoS ONE, 2015)
Among all 310,000 compounds or so, about 14,000 (4.5%) showed an effect of 50% or more. The effect is printed as a negative number. This is one part of the list.
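Further: peak tail current of the secondary pulse compared with the same well before compound.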

Each molecule was assayed against human ether-à-go-go-related gene (hERG) potassium channel (human, UniProt Q12809) (assay: primary screen, population patch clamp on CHO cells stably expressing hERG).
human ether-à-go-go-related gene (hERG) potassium channel, sequence (Q12809 whole entry, looked up): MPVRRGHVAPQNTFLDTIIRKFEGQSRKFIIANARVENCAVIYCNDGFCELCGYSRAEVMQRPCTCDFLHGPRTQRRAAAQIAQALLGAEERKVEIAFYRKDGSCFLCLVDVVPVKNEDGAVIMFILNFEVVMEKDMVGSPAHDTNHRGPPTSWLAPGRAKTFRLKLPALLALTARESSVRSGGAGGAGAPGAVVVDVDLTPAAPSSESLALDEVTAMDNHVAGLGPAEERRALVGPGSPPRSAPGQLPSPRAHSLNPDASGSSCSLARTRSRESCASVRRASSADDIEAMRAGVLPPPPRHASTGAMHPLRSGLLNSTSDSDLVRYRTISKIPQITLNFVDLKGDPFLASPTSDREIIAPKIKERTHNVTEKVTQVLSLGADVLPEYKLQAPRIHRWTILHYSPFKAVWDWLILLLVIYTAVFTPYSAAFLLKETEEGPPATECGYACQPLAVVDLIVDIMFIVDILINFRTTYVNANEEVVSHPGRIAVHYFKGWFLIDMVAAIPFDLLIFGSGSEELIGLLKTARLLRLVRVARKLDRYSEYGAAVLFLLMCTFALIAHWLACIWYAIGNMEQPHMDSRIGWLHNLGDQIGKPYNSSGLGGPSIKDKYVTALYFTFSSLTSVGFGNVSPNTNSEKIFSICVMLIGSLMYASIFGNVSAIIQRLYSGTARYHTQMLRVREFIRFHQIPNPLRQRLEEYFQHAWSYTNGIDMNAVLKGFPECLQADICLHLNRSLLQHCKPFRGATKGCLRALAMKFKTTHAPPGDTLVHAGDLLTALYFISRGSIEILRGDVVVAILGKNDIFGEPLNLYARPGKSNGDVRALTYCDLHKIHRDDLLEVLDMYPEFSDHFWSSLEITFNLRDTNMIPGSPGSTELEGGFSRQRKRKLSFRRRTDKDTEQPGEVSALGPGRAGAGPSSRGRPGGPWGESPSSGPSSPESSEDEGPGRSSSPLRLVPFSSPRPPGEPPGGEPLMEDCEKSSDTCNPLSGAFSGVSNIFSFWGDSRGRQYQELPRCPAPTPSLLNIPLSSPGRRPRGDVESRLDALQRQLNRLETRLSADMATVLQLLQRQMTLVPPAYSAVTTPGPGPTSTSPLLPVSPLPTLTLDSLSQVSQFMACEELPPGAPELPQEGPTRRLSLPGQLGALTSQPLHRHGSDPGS
`Cc1cc(OCC(=O)NCc2cccnc2)c2c(C)c(Cc3ccccc3)c(=O)oc2c1` was tested, and the “hERG current change (%, negative = inhibition) at 10uM” value was -16.8%. In the case of `Cc1ccc(S(=O)(=O)N2CCCCC2)cc1NC(=O)c1ccc2c(=O)n3c(nc2c1)CCCCC3`, the “hERG current change (%, negative = inhibition) at 10uM” value was -64.1%. With `NC(=O)C1CC=CCC1C(=O)OCC(Cl)=C(Cl)Cl` (stereo not drawn) the “hERG current change (%, negative = inhibition) at 10uM” value was 22.9%. `CC(C)N(Cc1ccccc1)C(=O)CSc1nccn1C` was tested, and the “hERG current change (%, negative = inhibition) at 10uM” value was 11.9%. In the case of `COC(=O)c1c(NC(=O)c2ccco2)sc(C(=O)Nc2ccc(F)cc2)c1C`, the “hERG current change (%, negative = inhibition) at 10uM” value was 8.19%. In the case of `CC(=O)Nc1ccc(C(=O)OCC(=O)N(C)C2CCCCC2)cc1`, the “hERG current change (%, negative = inhibition) at 10uM” value was 18.3%. With `CCC(C)C1=CC(=Nc2c(C)n(C)n(-c3ccccc3)c2=O)C=C(C(C)CC)C1=O` (stereo not drawn) the “hERG current change (%, negative = inhibition) at 10uM” value was 8.91%. In the case of `COC(=O)CNC(=O)COC(=O)c1cc(Cl)cc(Cl)c1N`, the “hERG current change (%, negative = inhibition) at 10uM” value was -9.3%. For `CCn1c(CNC(=O)c2ccco2)nnc1SCC(=O)Nc1cccc(F)c1`, the “hERG current change (%, negative = inhibition) at 10uM” value was -10.8%. For `CC(=O)c1c(C)nn(C(C)CC(=O)O)c1C` (stereo not drawn), the “hERG current change (%, negative = inhibition) at 10uM” value was -2.53%. `COc1ccc(C2C=C(C34CC5CC(CC(C5)C3)C4)NC(=S)N2)cc1` (stereo not drawn) was tested, and the “hERG current change (%, negative = inhibition) at 10uM” value was 3.44%. With `O=C(OCC(=O)N1CCCCCC1)c1n[nH]c(=O)c2ccccc12` the “hERG current change (%, negative = inhibition) at 10uM” value was -4.37%. `CC(=O)NNc1ncnc2c1cnn2-c1ccccc1` was tested, and the “hERG current change (%, negative = inhibition) at 10uM” value was -0.103%. In the case of `COCCNC(=O)CSc1cc(-c2ccccc2)c2ccc(OC)cc2n1`, the “hERG current change (%, negative = inhibition) at 10uM” value was -42.6%. `CCN1C(=O)/C(=C/c2ccc3c(c2)CCN3CCCCl)C(=O)NC1=S` was tested, and the “hERG current change (%, negative = inhibition) at 10uM” value was -3.76%. `COc1ccc(-c2noc(CN(C(=O)c3ccc4c(c3)OCO4)C(C)C)n2)cc1` was tested, and the “hERG current change (%, negative = inhibition) at 10uM” value was -6.46%. With `C=CCN1C(=O)/C(=C\c2ccc(C)cc2)N=C1SCC(=O)NCCC` the “hERG current change (%, negative = inhibition) at 10uM” value was -3.27%. In the case of `O=C1CC2(CCN(S(=O)(=O)c3ccccc3F)CC2)Oc2ccccc21`, the “hERG current change (%, negative = inhibition) at 10uM” value was -84.6%. `CC12CN3CC(C)(CN(C1)C3c1ccc3ccccc3c1O)C2=O` (stereo not drawn) was tested, and the “hERG current change (%, negative = inhibition) at 10uM” value was 7.44%. `CCN(CC(=O)Nc1cc(Cl)ccc1C)C(=O)Cc1ccsc1` was tested, and the “hERG current change (%, negative = inhibition) at 10uM” value was -8.12%. For `COc1ccccc1NC(=O)NNC(=O)COc1ccc2ccccc2c1`, the “hERG current change (%, negative = inhibition) at 10uM” value was 7.24%. For `Clc1ccc(-n2ncc3c(N4CCCCCC4)ncnc32)cc1`, the “hERG current change (%, negative = inhibition) at 10uM” value was 16.5%. For `CCOC(=O)c1ccc(NC(=O)N2CCN(c3cccc(OC)c3)CC2)cc1`, the “hERG current change (%, negative = inhibition) at 10uM” value was -16.5%. `COc1ccccc1C(=O)Oc1ccc2ccc(=O)oc2c1` was tested, and the “hERG current change (%, negative = inhibition) at 10uM” value was 10.5%. `Cc1ccc(-c2cc(C(=O)N/N=C/c3ccccc3)n[nH]2)o1` was tested, and the “hERG current change (%, negative = inhibition) at 10uM” value was -12.6%. With `CCCc1nc2ccccc2c(=O)n1CCc1ccccc1` the “hERG current change (%, negative = inhibition) at 10uM” value was -18.5%. For `O=C(c1ccc(=O)[nH]c1)N1CCN(S(=O)(=O)c2ccc3ccccc3c2)CC1`, the “hERG current change (%, negative = inhibition) at 10uM” value was -7.91%. With `CCOC(=O)c1cccnc1SC(CC)C(=O)NCc1ccco1` (stereo not drawn) the “hERG current change (%, negative = inhibition) at 10uM” value was -31.5%. `Clc1cccc(C2Nc3cccc4cccc(c34)N2)c1` was tested, and the “hERG current change (%, negative = inhibition) at 10uM” value was 8.11%. With `CCOC(=O)NC1(C(F)(F)F)NC(=O)N(C2CCCCC2)C1=O` (stereo not drawn) the “hERG current change (%, negative = inhibition) at 10uM” value was -3.7%. `CCc1nc(OCCN(C)C)c2oc3ccccc3c2n1` was tested, and the “hERG current change (%, negative = inhibition) at 10uM” value was -4.1%. In the case of `CCN1C(=O)CC(Sc2ccccc2C(=O)O)C1=O` (stereo not drawn), the “hERG current change (%, negative = inhibition) at 10uM” value was -5.17%. In the case of `O=C(c1ccc(C(F)(F)F)cc1)C1CCCN(C(=O)CN2CCCC2=O)C1` (stereo not drawn), the “hERG current change (%, negative = inhibition) at 10uM” value was 0.525%. In the case of `COc1ccc(C2(C(=O)N3CCC(n4nc(-c5ccccc5)oc4=O)CC3)CC2)cc1`, the “hERG current change (%, negative = inhibition) at 10uM” value was 20.2%. With `Cl.Clc1ccc(CN2C3=NCCCN3c3ccccc32)cc1` the “hERG current change (%, negative = inhibition) at 10uM” value was -75.1%. In the case of `COc1ccc(C(=O)N2CCN(CCc3ccccc3)CC2)cc1[N+](=O)[O-]`, the “hERG current change (%, negative = inhibition) at 10uM” value was -75.6%. With `COc1ccc(OCC(=O)N/N=C/c2ccsc2)cc1` the “hERG current change (%, negative = inhibition) at 10uM” value was -26.6%. In the case of `Br.CCCc1nnc2n1N=C(c1ccc(OC)c(OC)c1)CS2`, the “hERG current change (%, negative = inhibition) at 10uM” value was -17.1%. `O=C(CSc1cc(Cl)ccc1Cl)Nc1ccc(N2CCOCC2)cc1` was tested, and the “hERG current change (%, negative = inhibition) at 10uM” value was -58.3%. For `Cc1ccc(S(=O)(=O)N(C)C)cc1-n1c(SCC(=O)Nc2ccc(F)c(F)c2F)nc2ccccc2c1=O`, the “hERG current change (%, negative = inhibition) at 10uM” value was 8.58%. For `NS(=O)(=O)c1ccc(-c2cccc(/C=C3\SC(=O)NC3=O)c2)cc1`, the “hERG current change (%, negative = inhibition) at 10uM” value was 7.87%. In the case of `Cn1c(NCCCN2CCOCC2)nc2c1c(=O)n(Cc1ccc(Cl)cc1Cl)c(=O)n2C`, the “hERG current change (%, negative = inhibition) at 10uM” value was -45.8%. For `CN(C)Cc1ccc(O)c(CCc2ccccc2)n1.Cl`, the “hERG current change (%, negative = inhibition) at 10uM” value was -6.43%. For `Cc1ccc(S(=O)c2snnc2C)cc1` (stereo not drawn), the “hERG current change (%, negative = inhibition) at 10uM” value was 28.1%. With `CCN(C(=O)Cc1c(C(=O)O)n(C)c2ccccc12)c1cc(OC)ccc1OC` the “hERG current change (%, negative = inhibition) at 10uM” value was 11.9%. With `CCCCOc1ccccc1-c1cc(C(=O)O)[nH]n1` the “hERG current change (%, negative = inhibition) at 10uM” value was 12.8%. For `COc1ccc(-c2nnc(SCc3cc(C)cc(C)c3)o2)cc1`, the “hERG current change (%, negative = inhibition) at 10uM” value was 6.31%. With `O=C(Nc1ccc(SC(F)F)cc1)C12CCC(CC1)C2` the “hERG current change (%, negative = inhibition) at 10uM” value was 3.03%. `Nc1ccc2nc(SCC(=O)c3ccccc3)sc2c1` was tested, and the “hERG current change (%, negative = inhibition) at 10uM” value was 9.11%. `CCCCOC(=O)c1cc(=O)[nH]c2ccc(C)cc12` was tested, and the “hERG current change (%, negative = inhibition) at 10uM” value was 5.6%. For `CCN1CCN(C(CNS(=O)(=O)c2ccc(OC)c(C)c2)c2cccnc2)CC1` (stereo not drawn), the “hERG current change (%, negative = inhibition) at 10uM” value was -70.2%. In the case of `COc1cccc(N(C(=O)CNC(=O)c2ccco2)C(C(=O)NC2CCCC2)c2ccco2)c1` (stereo not drawn), the “hERG current change (%, negative = inhibition) at 10uM” value was -8.79%. `COc1ccc2oc(C(=O)OC(C)C(=O)NC3(C#N)CCCCC3)c(C)c2c1` (stereo not drawn) was tested, and the “hERG current change (%, negative = inhibition) at 10uM” value was -15.8%. `CS(=O)(=O)c1ccc(Cl)c(NC(=O)COC(=O)CNC(=O)c2sc3ccccc3c2Cl)c1` was tested, and the “hERG current change (%, negative = inhibition) at 10uM” value was 3.27%. With `COc1ccc(NC(=O)CN(C)C(=O)CNC(=O)Cc2cccc3ccccc23)cc1` the “hERG current change (%, negative = inhibition) at 10uM” value was 17.7%. With `CCn1c(COc2ccc(C)cc2)nnc1SCC(=O)Nc1ccc2c(c1)OCCO2` the “hERG current change (%, negative = inhibition) at 10uM” value was 7.22%. In the case of `COC(=O)C1=C(c2cccc(OCc3ccccc3)c2)C[C@@H]2CC[C@H]1N2C(=O)NCc1cccc(F)c1`, the “hERG current change (%, negative = inhibition) at 10uM” value was 9.01%.
